Measurements reported in the supplement of paper PMC8728848.
The other results are listed elsewhere or left out.

Legend:
Test in all cases: glycan array binding signal (z-score within array); higher = stronger binding
Conditions in all cases: glycan notation: IUPAC condensed, linker removed
[1] = molecular target: Gal6S(b1-4)Glc
Summary of the method: (§1)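 Glycan array binding is given as a within-array Z-score, which can be read as non-binding when negative. The arrays, 3228 of them, came from the Consortium for Functional Glycomics database and were retained only where the protein sequence was available. Z-scores were averaged across arrays of the same protein sequence at different concentrations or buffers and across linkers.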

[2] = molecular target: Gal6S(b1-4)Glc6S
Summary of the method: as §1

[3] = molecular target: Gal6S(b1-4)GlcNAc
Summary of the method: as §1

[4] = molecular target: Gal6S(b1-4)GlcNAc6S
Summary of the method: as §1

[5] = molecular target: GalNAc(a1-3)Gal
Summary of the method: as §1

[6] = molecular target: GalNAc(a1-3)GalNAc
Summary of the method: as §1

[7] = molecular target: GalNAc(a1-3)GalNAc(b1-3)Gal(a1-4)Gal(b1-4)Glc
Summary of the method: as §1

[8] = molecular target: GalNAc(a1-3)GalNAc(b1-3)Gal(a1-4)Gal(b1-4)GlcNAc
Summary of the method: as §1

[9] = molecular target: GalNAc(b1-3)Gal
Summary of the method: as §1

[10] = molecular target: GalNAc(b1-3)Gal(a1-4)Gal(b1-4)GlcNAc
Summary of the method: as §1

[11] = molecular target: GalNAc(b1-3)Gal(a1-4)Gal(b1-4)GlcNAc(b1-3)Gal(b1-4)Glc
Summary of the method: as §1

[12] = molecular target: GalNAc(b1-3)Gal(a1-6)Gal(b1-4)Glc
Summary of the method: as §1

[13] = molecular target: GalNAc(b1-3)GalNAc
Summary of the method: as §1

[14] = molecular target: GalNAc(b1-3)GlcNAc
Summary of the method: as §1

[15] = molecular target: GalNAc(b1-4)Gal(b1-4)Glc
Summary of the method: as §1

[16] = molecular target: GalNAc(b1-4)GlcNAc
Summary of the method: as §1

[17] = molecular target: GalNAc(b1-4)GlcNAc(b1-2)Man
Summary of the method: as §1

[18] = molecular target: GalNAc(b1-4)GlcNAc(b1-2)Man(a1-3)[GalNAc(b1-4)GlcNAc(b1-2)Man(a1-6)]Man(b1-4)GlcNAc(b1-4)GlcNAc
Summary of the method: as §1

[19] = molecular target: GalNAc(b1-4)GlcNAc(b1-3)GalNAc(b1-4)GlcNAc
Summary of the method: as §1

[20] = molecular target: GalNAc(b1-4)GlcNAc6S
Summary of the method: as §1

[21] = molecular target: GalNAc(b1-6)GalNAc
Summary of the method: as §1

[22] = molecular target: GalNAc3S(b1-4)GlcNAc
Summary of the method: as §1

[23] = molecular target: GalNAc3S(b1-4)GlcNAc3S
Summary of the method: as §1

[24] = molecular target: GalNAc3S(b1-4)[Fuc(a1-3)]GlcNAc
Summary of the method: as §1

[25] = molecular target: GalNAc4S6S(b1-4)GlcNAc
Summary of the method: as §1

[26] = molecular target: GalNAc6S(b1-4)GlcNAc
Summary of the method: as §1

[27] = molecular target: Glc(a1-4)Glc
Summary of the method: as §1

[28] = molecular target: Glc(a1-4)Glc(a1-4)Glc(a1-4)Glc
Summary of the method: as §1

[29] = molecular target: Glc(a1-6)Glc(a1-6)Glc
Summary of the method: as §1

[30] = molecular target: Glc(a1-6)Glc(a1-6)Glc(a1-6)Glc
Summary of the method: as §1

[31] = molecular target: Glc(b1-4)Glc
Summary of the method: as §1

[32] = molecular target: Glc(b1-6)Glc
Summary of the method: as §1

[33] = molecular target: GlcA(b1-3)Gal
Summary of the method: as §1

[34] = molecular target: GlcA(b1-3)GlcNAc
Summary of the method: as §1

[35] = molecular target: GlcA(b1-6)Gal
Summary of the method: as §1

[36] = molecular target: GlcA3S(b1-3)Gal(b1-4)GlcNAc(b1-2)Man
Summary of the method: as §1

[37] = molecular target: GlcA3S(b1-3)Gal(b1-4)GlcNAc(b1-3)Gal(b1-4)Glc
Summary of the method: as §1

[38] = molecular target: GlcNAc(a1-3)Gal(b1-4)GlcNAc
Summary of the method: as §1

[39] = molecular target: GlcNAc(a1-4)Gal(b1-3)GlcNAc
Summary of the method: as §1

[40] = molecular target: GlcNAc(a1-4)Gal(b1-4)GalNAc
Summary of the method: as §1

[41] = molecular target: GlcNAc(a1-4)Gal(b1-4)GlcNAc
Summary of the method: as §1

[42] = molecular target: GlcNAc(a1-4)Gal(b1-4)GlcNAc(b1-3)Gal(b1-4)Glc
Summary of the method: as §1

[43] = molecular target: GlcNAc(a1-4)Gal(b1-4)GlcNAc(b1-3)Gal(b1-4)GlcNAc
Summary of the method: as §1

[44] = molecular target: GlcNAc(a1-4)Gal(b1-4)GlcNAc(b1-3)Gal(b1-4)GlcNAc(b1-3)Gal(b1-4)GlcNAc
Summary of the method: as §1

[45] = molecular target: GlcNAc(a1-4)Gal(b1-4)GlcNAc(b1-3)Gal(b1-4)[Fuc(a1-3)]GlcNAc(b1-3)Gal(b1-4)[Fuc(a1-3)]GlcNAc
Summary of the method: as §1

B1: Cp ZmpB (Clostridium perfringens), Q0TR08 (protein)
chain: MNKRKIAAIILATMITNLSATTIDVLAQELNTKNNSKVEVSHDDESHQARVSKFDLYNSDKLDAYNQEFQVSRSNIKSINNNGGKYNSSTIDKAIDGNLETHWETGKPNDANFTNEVVVTFNEITNIDRIVYSARRDSARGKGFAKEFEIYASLKDEGDDFNLVSSGEYTESTRDLVEIKFNPTDFKRLKFKFKKADQNWASAAEFMFYKEDKLNEKFNGLFTDSSMNKVSEEFNTLEKLNAFENELKDHPIYDLYKEGLNNARAILTETSENPTKATLGQITYNLNDDYNNQYRMPYKNIKAIKNNGRHYAAQNIEKAIDNDVNTYWETGTLNSSSFNNEVEVEFNDLVTLDRIVYGSRQSDLKGFAEEVYIYASRTSKGDTYKLVATGAHEATKGLVEAKFEPTEFKRVKFKFKKSKQNSATLNELMFYKPDEVYSSIPKLFTDGTMSELSEEFNSLEKINAFKEKAKNHPLYNDFNETIELAESLISNPRKEDVLELEMRGDSISEAKKRKVWNFQDWQITGLSARAGDKITVYVDVAEGDPTPTLLYKQSLTQHGGATSFQLKPGKNEITIPEINYESNGIPKDVIQGGDLFFTNYKSDSQKRAPKVRIEGASKYPVFILGKSDENEVMKELEAYVEKIKAEPKTTPNIFAVSSNKSLEFVQATYALDWYKKNNKTPKYTAEQWDQYIADAMGFWGFDNSKDVNSDFNFRIMPMVKNLSGGAFMNAGNGVIGIRPGNQDAILAANKGWGVAHELGHNFDTGGRTIVEVTNNMMPLFFESKYKTKTRITDQNIWENNTYPKVGLDDYSNNELYNKADSTHLAQLAPLWQLYLYDNTFYGKFERQFRERDFGNKNREDIYKSWVVAASDAMELDLTEFFARHGIRVDDKVKEDLAKYPKPDKKIYYLNDLAMNYKGDGFTENAKVSVSTSGSNGNIKLSFSVDDENKDNILGYEIRRDGKYVGFTSNDSFVDTKSNLDEDGVYVVTPYDRKLNTLNPIEVNALQPTLSVNPVITLALGEEFNEEEYIVAKDIKGNSLSESVKVKSSNVNTSKVGEYEVLYSLEDSKGNEYTKTSKVNVVSRKEYMSDLTPKQSSNGWGTVRKDKSISGGVIGLTRDGDFVDYNKGLGLHSNAEYVYDLEGKDYDYFESYVGVDKAMSSRPASSVIFKVLVDGEEKFNSGVMRSTTPQKYVKVDVKNAKELKLIVNDAGDGDSSDHASFGDAKLATLSSKPIIKGENLAYSMDEKVDLMKGITATDIEDGNITSKVQIKSSDFVEGKSGIFTVVYSVTDSDGLTSECSRTIAVTDKETQLSDLNWKSATIGSGSVRKDRAVSGNQIRLLNEDNSVETFAKGIGTHSYSEIVYNSEGYDIFDTWVGIDRHVADKKVSSVKFKVYVDGELKAETDVMRIDTPKKRLVVDVRNSKEIKLVVDVADNGNNWDHADWADAKFRNLAEYDASELNKAIEEAKKLDLNNYTEESSEALKNAISKGEEALLSKDKETINSALEELNKEMNSLVKVDLNAVINIPDKYLLKSIQNQLNKTGDITLGDMYSLTTLTLSGVEDLTGLENAKNLETLNMDYNEVKDLRPLSKLKKLNTLNAQEQFIAAGELKPSNGKVIGDSKVYNREGKNVAKTIRVVDKNGNTILEQDAKDEFTINTKDLSSGLYGVHVLFEDEGFSGVMFYLFNV
glycan array binding signal (z-score) [1]: -0.137
glycan array binding signal (z-score) [2]: 0.546
glycan array binding signal (z-score) [3]: -0.267
glycan array binding signal (z-score) [4]: 0.512
glycan array binding signal (z-score) [5]: 0.069
glycan array binding signal (z-score) [6]: -0.2
glycan array binding signal (z-score) [7]: -0.174
glycan array binding signal (z-score) [8]: -0.396
glycan array binding signal (z-score) [9]: 0.101
glycan array binding signal (z-score) [10]: 0.465
glycan array binding signal (z-score) [11]: 0.209
glycan array binding signal (z-score) [12]: 0.111
glycan array binding signal (z-score) [13]: -0.273
glycan array binding signal (z-score) [14]: -0.476
glycan array binding signal (z-score) [15]: -0.224
glycan array binding signal (z-score) [16]: 0.042
glycan array binding signal (z-score) [17]: -0.369
glycan array binding signal (z-score) [18]: 0.667
glycan array binding signal (z-score) [19]: 0.029
glycan array binding signal (z-score) [20]: -0.391
glycan array binding signal (z-score) [21]: -0.526
glycan array binding signal (z-score) [22]: -0.219
glycan array binding signal (z-score) [23]: 0.284
glycan array binding signal (z-score) [24]: -0.162
glycan array binding signal (z-score) [25]: -0.231
glycan array binding signal (z-score) [26]: 0.23
glycan array binding signal (z-score) [27]: -0.107
glycan array binding signal (z-score) [28]: 0.367
glycan array binding signal (z-score) [29]: -0.335
glycan array binding signal (z-score) [30]: -0.3
glycan array binding signal (z-score) [31]: -0.26
glycan array binding signal (z-score) [32]: 0.35
glycan array binding signal (z-score) [33]: -0.216
glycan array binding signal (z-score) [34]: -0.351
glycan array binding signal (z-score) [35]: 0.493
glycan array binding signal (z-score) [36]: 0.403
glycan array binding signal (z-score) [37]: -0.037
glycan array binding signal (z-score) [38]: -0.366
glycan array binding signal (z-score) [39]: -0.284
glycan array binding signal (z-score) [40]: 0.223
glycan array binding signal (z-score) [41]: -0.001
glycan array binding signal (z-score) [42]: -0.14
glycan array binding signal (z-score) [43]: -0.144
glycan array binding signal (z-score) [44]: 0.055
glycan array binding signal (z-score) [45]: 0.88
